# Data: PubChem BioAssay AID2675 (National Center for Advancing Translational Sciences (NCATS), 2010)
# In all, about 280,000 compounds went through this assay and about 100 (0.036%) were called active. The inconclusive results got no clear call from the source; some entries with a clear call stand among them for comparison. The call rests on the fitted dose curve; in most records, active means well fitted inhibition curve with a large enough effect in the signal ratio, with a control signal flat (not every such curve was filed as active); inconclusive means small, poorly fitted or top-dose-only effect, or effect the other way, or a change in a side signal; inactive means no such curve, though single readings can be large or run the other way; the % refers to the signal ratio. A potency beside an inconclusive call is a rough fit, not a confirmed value. “Side channel” marks fits to a control or component signal instead of the main read-out.
# Molecular target: Muscleblind-like protein 1 (Homo sapiens) (UniProt Q9NR56)
# Chain of UniProt Q9NR56 (Q9NR56 whole entry, looked up): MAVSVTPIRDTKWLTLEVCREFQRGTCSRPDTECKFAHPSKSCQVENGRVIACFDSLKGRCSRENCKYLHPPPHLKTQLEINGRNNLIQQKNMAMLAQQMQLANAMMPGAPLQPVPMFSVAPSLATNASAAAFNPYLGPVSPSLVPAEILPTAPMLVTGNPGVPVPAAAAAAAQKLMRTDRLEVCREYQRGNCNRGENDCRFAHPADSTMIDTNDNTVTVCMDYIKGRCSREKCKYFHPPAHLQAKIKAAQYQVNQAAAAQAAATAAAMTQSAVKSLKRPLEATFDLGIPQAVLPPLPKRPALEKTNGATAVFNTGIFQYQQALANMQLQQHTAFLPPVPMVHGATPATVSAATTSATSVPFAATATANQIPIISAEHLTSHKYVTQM
# Experiment: qHTS Assay for Inhibitors of MBNL1-poly(CUG) RNA binding
# Details: TR-FRET MBNL1-His/biotin-(CUG)12 binding, 665/545 ratio; activity change, negative = inhibition: at 57.5 µM (top of the series)
# Outline: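 TR-FRET between His-tagged MBNL1 and biotin-(CUG)12 RNA, detected with Tb anti-His antibody (0.055 ng/ul) and streptavidin-XL665 (5 nM), 60 min at room temperature. Compounds titrated 92 nM to 58 uM; 665/545 nm ratio normalized to buffer and complex controls.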
# On the % scale 0 is the no-effect control and ±100 the full control effect; potency means the concentration at half of the fitted maximal effect; tags describe the fitted curve by direction and shape or compound fluorescence and quenching.
Structure (SMILES),Potency,"activity change, negative = inhibition"
O=C(N/N=C/C=C/c1cccc([N+](=O)[O-])c1)C(O)c1ccccc1 (stereo not drawn),"inconclusive: 11.2 µM [quencher, side channel, partial curve]",
COc1ccc2ccccc2c1/C=N\n1c(C)cc(C)c(C(N)=O)c1=O,"inconclusive: 25.1 µM [quencher, side channel, single point]",
CCn1c(=O)ccc2cc([N+](=O)[O-])ccc21,"inconclusive: 15.8 µM [quencher, side channel, partial curve]",
Cc1ccc(S(=O)(=O)c2cn(CC(=O)Nc3ccccc3)c3ccc(F)cc3c2=O)cc1,"inconclusive: 25.1 µM [fluorescent, side channel, single point]",
Cc1ccc(Nc2ccc(C(=O)O)cc2[N+](=O)[O-])cc1,"inconclusive: 28.2 µM [quencher, side channel, partial curve]",
CCOC(=O)c1cc(-c2cccc([N+](=O)[O-])c2)n[nH]1,"inconclusive: 11.2 µM [quencher, partial curve]",
CCOc1cc(/C=N/NC(=O)c2ccc(N(C)S(=O)(=O)c3ccccc3)cc2)ccc1OC,"inconclusive: 14.1 µM [quencher, side channel, partial curve]",
Cn1c(SCc2ccccc2)nc(C(F)(F)F)cc1=O,inactive,
Nn1c(=O)[nH]c2c([nH]c3ccccc32)c1=O,"inconclusive: 25.1 µM [quencher, single point]",
O=C(N/N=C/c1cc(O)ccc1[N+](=O)[O-])c1ccc2c(c1)OCCO2,"inconclusive: 15.8 µM [quencher, side channel, partial curve]",
O=C(O)CSc1ccc2ccccc2n1,"inconclusive: 10 µM [fluorescent, side channel, full curve, poor fit]",
CC(=O)c1ccccc1OC(=O)COc1ccc([N+](=O)[O-])cc1,"inconclusive: 11.2 µM [quencher, partial curve]",
O=S(=O)(c1cccc2cnccc12)N1CCCNCC1,inactive,
O=C(CCC(=O)OCc1cccc(C(=O)Oc2ccccc2)c1)Nc1cccc2ccccc12,"inconclusive: 1 µM [quencher, side channel, full curve]",
Cc1ccc(S(=O)(=O)NCc2ccc(C(=O)NCCCN3CCC(Cc4ccccc4)CC3)cc2)cc1,inactive,
O=c1c2cc([N+](=O)[O-])ccc2nc2n1CCC2,"inconclusive: 14.1 µM [quencher, side channel, partial curve]",
c1ccc2c(c1)ncc1cccn12,"inconclusive: 10 µM [quencher, side channel, partial curve]",
S=C(NCc1ccc2c(c1)OCO2)Nc1ccc2nsnc2c1,"inconclusive: 14.1 µM [quencher, side channel, partial curve]",
Cc1scc(C(=O)N/N=C/c2ccsc2)c1C,,inactive: 2.92% [at 11.5 µM]

Structure (SMILES),Potency,"activity change, negative = inhibition"
CC(=O)C1=C(C)NC(SCC(=O)c2ccccc2)=C(C#N)C1c1ccco1 (stereo not drawn),"inconclusive: 22.4 µM [quencher, side channel, single point]",
COCCNC(=O)CN(C(=O)Cn1nnc2ccccc21)c1ccc(C)c(F)c1,"inconclusive: 39.8 µM [inhibitor, single point]",
CC(C)OCCCn1c(=N)c(S(=O)(=O)c2ccccc2)cc2c(=O)n3ccccc3nc21,"inconclusive: 3.98 µM [quencher, side channel, full curve]",
CCOC(=O)N1CCN(C(=O)Cn2nc(-c3ccc(Cl)cc3)ccc2=O)CC1,"inconclusive: 15.8 µM [quencher, side channel, partial curve]",
COc1ccc(CCNC(=O)c2cc(-c3ccccc3)c(N3CCOCC3)s2)c(OC)c1OC,inactive,
O=S(=O)(Cc1ccccc1)N1CCN(Cc2ccc3c(c2)OCO3)CC1,inactive,
O=C(COC(=O)CCC1CCCC1)Nc1ccc(Cl)cc1F,"inconclusive: 0.199 µM [fluorescent, side channel, full curve, poor fit]",
COc1ccc(CCNC(=O)C2CC(c3ccccc3[N+](=O)[O-])=NO2)cc1 (stereo not drawn),"inconclusive: 31.6 µM [quencher, side channel, single point]",
CCNc1ccc2noc3c2c1C(=O)c1ccccc1-3,"inconclusive: 3.55 µM [quencher, side channel, full curve]",
CC1CC2(CCCCC2)N2C(=O)C(=O)c3cccc1c32 (stereo not drawn),"inconclusive: 22.4 µM [quencher, side channel, single point]",
Cc1ccc(-n2c(N)c(C(=O)N3CCCCC3)sc2=S)cc1,"inconclusive: 17.8 µM [quencher, side channel, single point]",
O=C(c1ccccc1F)N1CCN(c2ccc([N+](=O)[O-])cc2-n2cccc2)CC1,"inconclusive: 28.2 µM [quencher, side channel, single point]",
CCOC(=O)CSc1nc(N)c(C#N)c(-c2ccc(OC)cc2)c1C#N,"inconclusive: 35.5 µM [fluorescent, side channel, single point]",
COC(=O)c1cc(OC)c(OC)cc1NC(=O)CN1CCCCC1,inactive,
Cc1cc(C(=O)N/N=C/c2cccc([N+](=O)[O-])c2O)n[nH]1,"inconclusive: 39.8 µM [quencher, side channel, partial curve]",
COc1cc(C2C(C#N)=C(C)NC3=C2C(=O)c2ccccc23)cc(OC)c1OC (stereo not drawn),"inconclusive: 35.5 µM [quencher, side channel, partial curve, poor fit]",
COc1cc(C(=O)NC(=S)Nc2ccccc2N2CCCC2)cc(OC)c1OC,inactive,
Cc1nc([N+](=O)[O-])c(Sc2nc3ccc([N+](=O)[O-])cc3[nH]2)n1Cc1ccccc1,"inconclusive: 17.8 µM [quencher, side channel, partial curve]",
O=C(Nc1ccccc1)c1cnc2ccccc2n1,"inconclusive: 3.98 µM [quencher, side channel, single point]",
